Reference: article PMC7819943, “Rice protein-binding microarrays: a tool to detect cis-acting elements near promoter regions in rice”
Some of the results follow.

These sequences were tested against T1, OsWOX13 (Oryza sativa, UniProt Q5QMM3 1-267) (assay: protein-binding microarray (RPBM); PBS, 2% BSA, 51.3 ng/ul salmon testes DNA, 50 uM zinc acetate, 200 nM TF, 25 C, 1 h; high values mean tight binding). Settings: protein: recombinant; tags: N-terminal polyhistidine and DsRed monomer fusion (pET32a); label: CyDye5-dUTP incorporated in the synthesized complementary strand; 3' TTTTT single-stranded linker to array surface; dsDNA, one strand shown.
T1 sequence: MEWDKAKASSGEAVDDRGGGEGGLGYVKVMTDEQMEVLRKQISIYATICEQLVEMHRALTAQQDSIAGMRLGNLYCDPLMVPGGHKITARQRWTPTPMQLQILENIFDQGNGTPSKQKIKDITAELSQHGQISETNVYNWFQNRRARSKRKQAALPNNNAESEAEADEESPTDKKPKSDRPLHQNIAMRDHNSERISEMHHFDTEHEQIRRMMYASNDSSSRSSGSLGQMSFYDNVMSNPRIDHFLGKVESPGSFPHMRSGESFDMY
Outline: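 A custom Agilent array was converted to double-stranded form by primer extension with Cy5-dUTP and blocked with 2% BSA. Protein at 200 nM in PBS with 2% BSA, salmon testes DNA and 50 µM zinc acetate was applied for 1 h at 25 °C, followed by washing. The proteins were polyhistidine–DsRed N-terminal fusions of transcription factors, expressed in E. coli BL21-CodonPlus and Ni–NTA-purified. The binding signal is per-feature fluorescence intensity (arbitrary units) from an Axon 4000B scanner.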

Sequence	binding signal
ATCATAATTGTGCAAGTATTTTGTTTGTCTTGTTCTATTTCGGAGTCACCTAGTGCAG	10400 fluorescence intensity (a.u.)
GTGCACTCAAGCCAGACTAATTGGACCCCACACATGCATACGGAGTCACCTAGTGCAG	4390 fluorescence intensity (a.u.)
ATTGCACAGATTGTGACTAATTTGCGAGACGAATCTTTTACGGAGTCACCTAGTGCAG	7340 fluorescence intensity (a.u.)
GATATATGATTGACTCAAGTCTTATTGATAAACTTGGTCCCGGAGTCACCTAGTGCAG	57500 fluorescence intensity (a.u.)
AGTCTTCTTTGTTGCAATCCGGATTGATAGTCTTGAGGAGCGGAGTCACCTAGTGCAG	3820 fluorescence intensity (a.u.)
GCGTCCCCAGTCAATTAAGGACCGAGCCATGAAGTTAAGCCGGAGTCACCTAGTGCAG	9700 fluorescence intensity (a.u.)
TTATCAATCGATAATAATAAAGGCAGGATGAATTGACAGGCGGAGTCACCTAGTGCAG	3290 fluorescence intensity (a.u.)
TCATTTTCCAATTAAATAATTGTTAAATGATGTTTGTATTCGGAGTCACCTAGTGCAG	18100 fluorescence intensity (a.u.)
CATGATTAGCCATAAGCGTTACAGTAACCCACATGTGCTACGGAGTCACCTAGTGCAG	31800 fluorescence intensity (a.u.)
ATTTGATTGACAGTAGATCGACAAACATAGTTTCAATATGCGGAGTCACCTAGTGCAG	49000 fluorescence intensity (a.u.)
CTTAATTTTGAATAGTACCTGCTACCTATATGAATTGAAACGGAGTCACCTAGTGCAG	14600 fluorescence intensity (a.u.)
CCTAATGTATGAAAGACACAGAAATGCTTCAACCTGTGCGCGGAGTCACCTAGTGCAG	3780 fluorescence intensity (a.u.)
AATGATGGAGGATAATTTATATGCTAAATTATAAACTTGTCGGAGTCACCTAGTGCAG	57700 fluorescence intensity (a.u.)
GGCAGTGATAGGCATTAAATTTACTTTTATTGAATTATTACGGAGTCACCTAGTGCAG	9140 fluorescence intensity (a.u.)
TTAGATTTGGCGACAAATTAAGGGATCTGAAGTGAACTTACGGAGTCACCTAGTGCAG	6290 fluorescence intensity (a.u.)
TCATGATAAATTTCCTCCTATTATGATTTTCATTTGAATACGGAGTCACCTAGTGCAG	7480 fluorescence intensity (a.u.)
ATGCACCAACCAATCAATCGAAACAACAGGTCGAAGAAAACGGAGTCACCTAGTGCAG	4870 fluorescence intensity (a.u.)
ACTAATTAACTGATCAGTTACCAACCCTGTACTTTTATCACGGAGTCACCTAGTGCAG	39800 fluorescence intensity (a.u.)
ATCCAATCAGAAGGCTGTATGTGGTCTTCCGCTTGCATTACGGAGTCACCTAGTGCAG	8950 fluorescence intensity (a.u.)
GTAGACTGATCACAATCTTTATTAGAATCGTTTAAGACACCGGAGTCACCTAGTGCAG	6090 fluorescence intensity (a.u.)
AGAGTTAAATTAGCATTAAGAAATACTCCTATGTCTCTTGCGGAGTCACCTAGTGCAG	8630 fluorescence intensity (a.u.)

Sequence	binding signal
TACGTCATTCATTAACTGTTTAGGAGTATACTACTCCAGTCGGAGTCACCTAGTGCAG	3540 fluorescence intensity (a.u.)
TTATAAAATTAATTTGAGAAAATAGTTCAGCCGCTATGATCGGAGTCACCTAGTGCAG	20000 fluorescence intensity (a.u.)
AAATTGATTAACATATATATGAATGTGAGTAATGCTAGAACGGAGTCACCTAGTGCAG	33000 fluorescence intensity (a.u.)
CAAAATTGCAGATAAAATATATTCCCAGTATTTAGTTATTCGGAGTCACCTAGTGCAG	4830 fluorescence intensity (a.u.)
TGTTCAATTATTATGAAAATAATGTGAGAAAGATGATGTACGGAGTCACCTAGTGCAG	10400 fluorescence intensity (a.u.)
ATTGATTTGGAAGGATTTGGATTCGGGATTGAATTCGACGCGGAGTCACCTAGTGCAG	32500 fluorescence intensity (a.u.)
CGGGGTCTCATCATCTAGTTAATTAAATATCAAGGACACGCGGAGTCACCTAGTGCAG	9120 fluorescence intensity (a.u.)
TTGTGAAATCAGCTAATAATCATATTGGAAGTAGGTAAAGCGGAGTCACCTAGTGCAG	3430 fluorescence intensity (a.u.)
GAGGAAGTATAATCATTAGCAGTTAAATATTTCACTCGCACGGAGTCACCTAGTGCAG	5100 fluorescence intensity (a.u.)
GCCTTTTATTAATTAGCATTTCAAAGTTTTCTCAATGATGCGGAGTCACCTAGTGCAG	17300 fluorescence intensity (a.u.)
ATTCCTGTTAATTTGGCGCCGTAACTCCAAACAGCATATACGGAGTCACCTAGTGCAG	7370 fluorescence intensity (a.u.)
TCTCACTGATGATTTCAATCATACGCTCAACTTAAATATCCGGAGTCACCTAGTGCAG	20800 fluorescence intensity (a.u.)
TCTCCAAGATTGATTCGTTCCCTCCCAATTCTTCACTTCCCGGAGTCACCTAGTGCAG	20800 fluorescence intensity (a.u.)
CCTGATAGAAAATATTTATAGTGCCATCTTATTATTTATACGGAGTCACCTAGTGCAG	5680 fluorescence intensity (a.u.)
TTCAATTAATGTGGGATTTTCTAGACCATGAGAGAGAACGCGGAGTCACCTAGTGCAG	10100 fluorescence intensity (a.u.)
TTGACTGATAAAATTACGTAGTGTATTCCTCAATTAAATGCGGAGTCACCTAGTGCAG	14500 fluorescence intensity (a.u.)
TAAATCTGACGAAAGATTAATAGGTTAGTCCCATCATTTGCGGAGTCACCTAGTGCAG	3360 fluorescence intensity (a.u.)
GGCTTAATTGCTCTGTGGTGTACGTTTAACAGGGAAAACTCGGAGTCACCTAGTGCAG	28600 fluorescence intensity (a.u.)
AACATAATAAATTAATGAAGTATATTGTTGGAATGTAAAACGGAGTCACCTAGTGCAG	4070 fluorescence intensity (a.u.)
CACCAATCAGTAGAGGACTAGAGGAACTGAACTGAAACCTCGGAGTCACCTAGTGCAG	4860 fluorescence intensity (a.u.)
TAGCATGATTAATTTTGATAAGGCAAAGTTGTATTTGGATCGGAGTCACCTAGTGCAG	37700 fluorescence intensity (a.u.)
